Measurements published in US12459987B2, “Monoclonal antibodies for prevention and treatment of herpes simplex viral infections” (priority 2019, dated 2025).

Molecular target: T1, FcγRIV (Mus musculus, UniProt A0A0B4J1G0)
T1 construct: purchased Promega
T1 sequence (A0A0B4J1G0 21-249): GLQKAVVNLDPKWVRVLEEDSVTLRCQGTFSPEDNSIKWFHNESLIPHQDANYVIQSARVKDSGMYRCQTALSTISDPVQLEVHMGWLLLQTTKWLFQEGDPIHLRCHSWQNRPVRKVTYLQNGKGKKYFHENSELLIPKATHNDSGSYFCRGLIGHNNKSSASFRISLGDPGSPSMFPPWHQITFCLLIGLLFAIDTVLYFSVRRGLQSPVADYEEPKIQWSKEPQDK
Experiment: Promega FcγRIV ADCC Reporter Bioassay (FcγRIV activation)
Assay type: cell-based, murine
Conditions: IgG1 and IgG2c isotypes of individual mAbs; 1 mg/mL
Procedure: FIG. 4: FcγRIV activation by the IgG1 and IgG2c isotypes of individual mAbs. FcγRIV activation was assayed using the Promega FcγRIV ADCC Reporter Bioassay at a concentration of 1 mg/mL. Statistical analysis is by ANOVA, **P<0.01, ****P<0.0001.
Based on the obtained V(D)J sequences from each B-cell culture, paired heavy and light chains were re-expressed (as recombinant mouse IgG1 and IgG2c antibodies) in Expi293F cells (Kuraoka et al. Immunity 2016; DiLillo et al. Nature Medicine 2013). […] As expected, all recombinant antibodies reacted specifically with HSV-2 G lysates (FIG. 3). […] Binding of recombinant antibodies to HSV-2 G lysates was tested by ELISA. […]
Protection by serum antibodies elicited by ΔgD-2 vaccinations depends on FcγRIV activation. […] The IgG1 and IgG2c isotype of BMPC-23 were analyzed in an in vitro FcγRIV activation assay (FIG. 4), and in vivo protection assay (see description below, FIGS. 6A to 6C).
Both IgG1 and IgG2c forms of 22D10, 33B8, and BMPC-23 antibodies (≥4 mg each) were assessed for reproducibility of in vivo protection assay, and any dependency on Ig isotype for protection. […] To test roles of Ig isotypes on ability to provide protection, IgG1 and IgG2c isotypes of these three antibodies were generated and assessed for ability to activate mFcγRIV signaling (as a measurement for ADCC), and for in vivo protection assay.

B1: BMPC-23 IgG2c: recombinant mouse IgG2c isotype of BMPC-23 (antibody, V domains shown)
VH: QVQLQQSGPELVKPGASVKLSCKASGYSFTTYDINWVKERPGQGLEWIGWIYPREGSTNYNEKFRGKATLTADTSSSTAYMELHSLTSEDSAVYFCATYGSSRYYTMDYWGQGTSVTVSSA
VL: DIVLTQSPTSLAVSLGQRATISCRASESVDNFGISFMNWFQQKPGQPPKLLIYAASNLGSGVPARFSGSGSGTDFSLNIHPMEDDDTAMYFCQQSKEVPLTFGAGTKLELKR
- FcγRIV activation: highest level of FcγR activation
